Results: the supplement of paper PMC10369915
The list shows a part of the results. Rule as the data show it: active = 3.2 or more and inactive = the rest. Only a few entries rise above the background.

Each binder was assayed against SHP2 C-SH2 domain E139D (assay: enrichment score (SH2-bound / input frequency) (ratio); bacterial display of known human phosphotyrosine sites (pTyr-Var adds point mutants) read by sequencing; higher = stronger binding; tyrosines were phosphorylated by kinases first). Details: peptide library: pTyr-Var.
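Also: displayed peptides selected on beads carrying the immobilized SH2 domain, with library peptides lacking any tyrosine serving as negative controls.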

Row | Binder | enrichment score
1 | KNNDGNIDFAE [MCFD2_Y135_Y135N_YF] | inactive: 0.412
2 | DGYIDYAEFAK [MCFD2_Y138] | inactive: 0.593
3 | ARSHIYTFSSC [MEFV_Y741_A744S] | inactive: 0.709
4 | ANRNVYEVEPT [MEGF10_Y1075] | inactive: 0.415
5 | FGVTLYPNSGE [MEP1A_Y472_R476G] | inactive: 1.26
6 | QADVVYVNTQL [MERTK_Y872_I871V] | inactive: 1.49
7 | HFGCVYRGTLL [MET_Y1093_H1094R] | inactive: 1.14
8 | LARHMYDKEFF [MET_Y1230_D1228H_YF] | inactive: 1.14
9 | MYDKEYYSVHN [MET_Y1234] | inactive: 1.09
10 | MCDKEYFSVHN [MET_Y1234_Y1230C_YF] | inactive: 0.908
11 | MDDKEYYSVHN [MET_Y1234_Y1230D] | inactive: 0.598
12 | YDKEYYSVHNK [MET_Y1235] | inactive: 0.842
13 | CDKEYYSVHNK [MET_Y1235_Y1230C] | inactive: 0.885
14 | SHNKYYMLVAR [MFSD8_Y134] | active: 4.72
15 | LSIWPYLQKID [MFSD8_Y63_M58L] | inactive: 1.46
16 | HSKGIYFVQLE [MGAT4B_Y262_Q257H_YF] | inactive: 1.91
17 | QELRRYLKSSV [MICA_Y194_G198S] | inactive: 0.603
18 | QELRRYLESGV [MICA_Y194_K196E] | inactive: 0.796

What follows are binders tested against SHP2 C-SH2 domain wild-type in the same assay as above. Details: peptide library: pTyr-Var.

Row | Binder | enrichment score
19 | KNNDGNIDFAE [MCFD2_Y135_Y135N_YF] | inactive: 0.563
20 | DGYIDYAEFAK [MCFD2_Y138] | inactive: 0.362
21 | ARSHIYTFSSC [MEFV_Y741_A744S] | inactive: 0.824
22 | ANRNVYEVEPT [MEGF10_Y1075] | inactive: 0.376
23 | FGVTLYPNSGE [MEP1A_Y472_R476G] | inactive: 1.09
24 | QADVVYVNTQL [MERTK_Y872_I871V] | inactive: 1.39
25 | HFGCVYRGTLL [MET_Y1093_H1094R] | inactive: 1.22
26 | LARHMYDKEFF [MET_Y1230_D1228H_YF] | inactive: 0.82
27 | MYDKEYYSVHN [MET_Y1234] | inactive: 0.911
28 | MCDKEYFSVHN [MET_Y1234_Y1230C_YF] | inactive: 0.667
29 | MDDKEYYSVHN [MET_Y1234_Y1230D] | inactive: 0.515
30 | YDKEYYSVHNK [MET_Y1235] | inactive: 0.865
31 | CDKEYYSVHNK [MET_Y1235_Y1230C] | inactive: 1.2
32 | SHNKYYMLVAR [MFSD8_Y134] | active: 6.22
33 | LSIWPYLQKID [MFSD8_Y63_M58L] | inactive: 2.2
34 | HSKGIYFVQLE [MGAT4B_Y262_Q257H_YF] | inactive: 1.87
35 | QELRRYLKSSV [MICA_Y194_G198S] | inactive: 0.511
36 | QELRRYLESGV [MICA_Y194_K196E] | inactive: 0.752

The binders below were run against SHP2 N-SH2 domain L43F in the same assay as above. Details: peptide library: pTyr-Var.

Row | Binder | enrichment score
37 | KNNDGNIDFAE [MCFD2_Y135_Y135N_YF] | inactive: 0.563
38 | DGYIDYAEFAK [MCFD2_Y138] | inactive: 0.645
39 | ARSHIYTFSSC [MEFV_Y741_A744S] | inactive: 0.719
40 | ANRNVYEVEPT [MEGF10_Y1075] | inactive: 0.332
41 | FGVTLYPNSGE [MEP1A_Y472_R476G] | inactive: 1.29
42 | QADVVYVNTQL [MERTK_Y872_I871V] | inactive: 1.73
43 | HFGCVYRGTLL [MET_Y1093_H1094R] | inactive: 1.23
44 | LARHMYDKEFF [MET_Y1230_D1228H_YF] | inactive: 0.738
45 | MYDKEYYSVHN [MET_Y1234] | inactive: 0.669
46 | MCDKEYFSVHN [MET_Y1234_Y1230C_YF] | inactive: 0.933
47 | MDDKEYYSVHN [MET_Y1234_Y1230D] | inactive: 0.658
48 | YDKEYYSVHNK [MET_Y1235] | inactive: 1.01
49 | CDKEYYSVHNK [MET_Y1235_Y1230C] | inactive: 0.843
50 | SHNKYYMLVAR [MFSD8_Y134] | active: 3.28
51 | LSIWPYLQKID [MFSD8_Y63_M58L] | inactive: 2.2
52 | HSKGIYFVQLE [MGAT4B_Y262_Q257H_YF] | inactive: 1.72
53 | QELRRYLKSSV [MICA_Y194_G198S] | inactive: 0.468
54 | QELRRYLESGV [MICA_Y194_K196E] | inactive: 0.483

Each binder was assayed against SHP2 N-SH2 domain T42A in the same assay as above. Details: peptide library: pTyr-Var.

Row | Binder | enrichment score
55 | KNNDGNIDFAE [MCFD2_Y135_Y135N_YF] | inactive: 0.499
56 | DGYIDYAEFAK [MCFD2_Y138] | inactive: 0.488
57 | ARSHIYTFSSC [MEFV_Y741_A744S] | inactive: 0.736
58 | ANRNVYEVEPT [MEGF10_Y1075] | inactive: 0.411
59 | FGVTLYPNSGE [MEP1A_Y472_R476G] | inactive: 1.08
60 | QADVVYVNTQL [MERTK_Y872_I871V] | active: 4.02
61 | HFGCVYRGTLL [MET_Y1093_H1094R] | inactive: 1.07
62 | LARHMYDKEFF [MET_Y1230_D1228H_YF] | inactive: 0.729
63 | MYDKEYYSVHN [MET_Y1234] | inactive: 0.939
64 | MCDKEYFSVHN [MET_Y1234_Y1230C_YF] | inactive: 0.667
65 | MDDKEYYSVHN [MET_Y1234_Y1230D] | inactive: 0.847
66 | YDKEYYSVHNK [MET_Y1235] | inactive: 0.58
67 | CDKEYYSVHNK [MET_Y1235_Y1230C] | inactive: 0.862
68 | SHNKYYMLVAR [MFSD8_Y134] | inactive: 3.08
69 | LSIWPYLQKID [MFSD8_Y63_M58L] | inactive: 2.22
70 | HSKGIYFVQLE [MGAT4B_Y262_Q257H_YF] | inactive: 1.53
71 | QELRRYLKSSV [MICA_Y194_G198S] | inactive: 0.576
72 | QELRRYLESGV [MICA_Y194_K196E] | inactive: 0.743

Each binder was assayed against SHP2 N-SH2 domain T52S in the same assay as above. Details: peptide library: pTyr-Var.

Row | Binder | enrichment score
73 | KNNDGNIDFAE [MCFD2_Y135_Y135N_YF] | inactive: 0.67
74 | DGYIDYAEFAK [MCFD2_Y138] | inactive: 0.287
75 | ARSHIYTFSSC [MEFV_Y741_A744S] | inactive: 0.673
76 | ANRNVYEVEPT [MEGF10_Y1075] | inactive: 0.499
77 | FGVTLYPNSGE [MEP1A_Y472_R476G] | inactive: 1.16
78 | QADVVYVNTQL [MERTK_Y872_I871V] | inactive: 1.17
79 | HFGCVYRGTLL [MET_Y1093_H1094R] | inactive: 1.31
80 | LARHMYDKEFF [MET_Y1230_D1228H_YF] | inactive: 0.852
81 | MYDKEYYSVHN [MET_Y1234] | inactive: 0.875
82 | MCDKEYFSVHN [MET_Y1234_Y1230C_YF] | inactive: 0.718
83 | MDDKEYYSVHN [MET_Y1234_Y1230D] | inactive: 0.811
84 | YDKEYYSVHNK [MET_Y1235] | inactive: 0.788
85 | CDKEYYSVHNK [MET_Y1235_Y1230C] | inactive: 0.81
86 | SHNKYYMLVAR [MFSD8_Y134] | inactive: 3.08
87 | LSIWPYLQKID [MFSD8_Y63_M58L] | inactive: 2.44
88 | HSKGIYFVQLE [MGAT4B_Y262_Q257H_YF] | inactive: 2.04
89 | QELRRYLKSSV [MICA_Y194_G198S] | inactive: 0.644
90 | QELRRYLESGV [MICA_Y194_K196E] | inactive: 0.776

These binders were tested against SHP2 N-SH2 domain wild-type in the same assay as above. Details: peptide library: pTyr-Var.

Row | Binder | enrichment score
91 | KNNDGNIDFAE [MCFD2_Y135_Y135N_YF] | inactive: 0.811
92 | DGYIDYAEFAK [MCFD2_Y138] | inactive: 0.838
93 | ARSHIYTFSSC [MEFV_Y741_A744S] | inactive: 0.831
94 | ANRNVYEVEPT [MEGF10_Y1075] | inactive: 0.543
95 | FGVTLYPNSGE [MEP1A_Y472_R476G] | inactive: 1.43
96 | QADVVYVNTQL [MERTK_Y872_I871V] | inactive: 1.12
97 | HFGCVYRGTLL [MET_Y1093_H1094R] | inactive: 1.83
98 | LARHMYDKEFF [MET_Y1230_D1228H_YF] | inactive: 1.19
99 | MYDKEYYSVHN [MET_Y1234] | inactive: 1.08
100 | MCDKEYFSVHN [MET_Y1234_Y1230C_YF] | inactive: 0.983
101 | MDDKEYYSVHN [MET_Y1234_Y1230D] | inactive: 0.956
102 | YDKEYYSVHNK [MET_Y1235] | inactive: 1.03
103 | CDKEYYSVHNK [MET_Y1235_Y1230C] | inactive: 1.02
104 | SHNKYYMLVAR [MFSD8_Y134] | inactive: 3.07
105 | LSIWPYLQKID [MFSD8_Y63_M58L] | inactive: 1.61
106 | HSKGIYFVQLE [MGAT4B_Y262_Q257H_YF] | inactive: 2.3
107 | QELRRYLKSSV [MICA_Y194_G198S] | inactive: 0.644
108 | QELRRYLESGV [MICA_Y194_K196E] | inactive: 0.701
